The record followed here is the supplement of paper PMC3334620.

In all, about 33,000 sequences were measured (“E-score (-0.5 to 0.5)”: median about -0.053, highest 2% from about 0.37 on). Some of the results follow.

UniProt P0CE41, sequence (P0CE41 whole entry, the tested form may be a part): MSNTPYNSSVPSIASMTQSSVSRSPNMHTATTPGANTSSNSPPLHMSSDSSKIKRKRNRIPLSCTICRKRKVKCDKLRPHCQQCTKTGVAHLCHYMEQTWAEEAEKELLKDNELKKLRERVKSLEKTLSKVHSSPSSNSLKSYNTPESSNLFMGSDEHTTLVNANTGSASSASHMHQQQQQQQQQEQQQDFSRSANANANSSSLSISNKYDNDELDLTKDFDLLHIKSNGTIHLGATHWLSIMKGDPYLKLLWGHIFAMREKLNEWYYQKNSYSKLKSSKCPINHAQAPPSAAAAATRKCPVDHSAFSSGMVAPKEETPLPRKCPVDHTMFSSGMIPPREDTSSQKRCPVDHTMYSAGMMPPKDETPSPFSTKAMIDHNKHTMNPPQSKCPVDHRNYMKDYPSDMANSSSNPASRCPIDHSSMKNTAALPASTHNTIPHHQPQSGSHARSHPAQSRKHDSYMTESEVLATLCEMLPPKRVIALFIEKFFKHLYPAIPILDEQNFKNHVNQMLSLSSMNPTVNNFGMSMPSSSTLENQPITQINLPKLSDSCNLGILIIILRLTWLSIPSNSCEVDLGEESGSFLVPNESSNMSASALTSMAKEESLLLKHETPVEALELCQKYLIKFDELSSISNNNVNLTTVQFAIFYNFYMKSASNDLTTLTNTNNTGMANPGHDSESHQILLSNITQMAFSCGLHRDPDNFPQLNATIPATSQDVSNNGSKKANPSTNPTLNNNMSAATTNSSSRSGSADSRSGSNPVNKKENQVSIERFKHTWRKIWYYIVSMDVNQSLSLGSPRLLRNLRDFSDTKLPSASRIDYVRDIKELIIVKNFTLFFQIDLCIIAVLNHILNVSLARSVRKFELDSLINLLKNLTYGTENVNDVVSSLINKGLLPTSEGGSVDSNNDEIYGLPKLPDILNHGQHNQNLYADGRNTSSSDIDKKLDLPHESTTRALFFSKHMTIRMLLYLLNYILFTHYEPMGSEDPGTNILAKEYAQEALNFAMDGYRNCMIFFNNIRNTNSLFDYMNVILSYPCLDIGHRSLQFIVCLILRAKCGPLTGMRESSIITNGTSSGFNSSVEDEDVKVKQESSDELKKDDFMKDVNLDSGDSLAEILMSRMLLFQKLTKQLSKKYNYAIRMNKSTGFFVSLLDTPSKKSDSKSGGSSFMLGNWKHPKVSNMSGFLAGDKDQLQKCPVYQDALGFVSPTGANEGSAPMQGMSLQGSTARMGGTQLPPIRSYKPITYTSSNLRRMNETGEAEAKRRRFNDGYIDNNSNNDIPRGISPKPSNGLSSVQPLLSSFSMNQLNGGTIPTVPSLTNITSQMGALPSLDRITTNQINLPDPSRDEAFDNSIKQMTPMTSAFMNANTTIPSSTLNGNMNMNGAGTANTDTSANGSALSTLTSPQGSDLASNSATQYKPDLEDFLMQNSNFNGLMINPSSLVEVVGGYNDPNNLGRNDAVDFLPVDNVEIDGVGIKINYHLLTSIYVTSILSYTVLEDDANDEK

For this assay, the target named is Hap1 (UniProt P0CE41). Nature of the assay: PBM E-score (8-mer binding enrichment) (E-score (-0.5 to 0.5)); higher = stronger / more preferred TF binding; most listed sequences are background and not binding sites. The conditions noted are these: protein concentration: 200 nM; construct: GST-DNA-binding domain. Summed up:
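Yeast transcription factors carrying a GST tag, as full-length proteins or DNA-binding domains, were produced by PURExpress in vitro transcription/translation. About 100-200 nM protein was applied to universal all-10-mer Agilent arrays, double-stranded by primer extension on fresh or once-stripped slides. Bound protein was detected with fluorescent anti-GST, and scans were normalised with masliner. The Universal PBM Analysis Suite gave each ungapped eight-base word, pooled with its reverse complement, an E-score, a modified Wilcoxon-Mann-Whitney statistic.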
As for ACATAATG, the “PBM E-score” value was -0.00364.

For ACGATAAT, the “PBM E-score” value was -0.113.

Regarding ATAATTAC, the “PBM E-score” value was 0.0865.

Take ATCCGCAG: the “PBM E-score” value was determined as 0.208. With CGCTATAG the figure was -0.158. On to GCACGTAA, for which the “PBM E-score” value is -0.0538. Next, CTGTGGTC: -0.0274; AGCATTAA: -0.00248. Next, ACGCGCGC: 0.151. With AAACCCCA the figure was -0.134; with CTATCAGA, -0.0878; with ACCTCTAA, -0.0123. Regarding AGGCTGGG, the “PBM E-score” value was -0.224. As for CGATATTC, the “PBM E-score” value came to 0.345. Next, AATACATG: -0.0503; ACGACCAG: -0.184; TGTATTAA: -0.0725. With ATAGACTG the figure was -0.195; with CGAAACTC, 0.177; with CCGGAACG, 0.328. Next, AAGGATCT: -0.233; AGCAGGAA: -0.246; CTGTGATA: -0.103. Turning to ATCCGAAT, the “PBM E-score” value amounted to 0.403. With CGTCGTCA, the “PBM E-score” value is -0.126.

TCGAACCA: the “PBM E-score” value is -0.245.

In the case of GCAAGAGA, the “PBM E-score” value was -0.172. Next, GGCGGTTA: 0.0801. Regarding GCTCGTAC, the “PBM E-score” value is -0.157. Next, ACCGATTC: 0.0838.

For CATCTGAA, the “PBM E-score” value was -0.0756. Next, GAATCATC: -0.0109; AGTCAGGC: -0.0868.

As to GATTCCAA, the “PBM E-score” value is -0.0456. With GCGTGCCA the figure was -0.045; with ATACTATC, 0.123.

For CCCAGGAC, the “PBM E-score” value was -0.126.

For CGTGTAAG, the “PBM E-score” value was -0.0208.

TATGACCA: the “PBM E-score” value is -0.0134.

As for AATACTAC, the “PBM E-score” value is -0.0997.

Consider AGTAGACG, for which the “PBM E-score” value was -0.202. Next, ACGCTATC: -0.0612. Take GAAGTGTA: the “PBM E-score” value was -0.159.

Consider CCTCCGTC, for which the “PBM E-score” value was 0.113. Consider AACTGGAG, for which the “PBM E-score” value is -0.157. Next, AGGTCTGC: -0.246; ATAGAAAC: -0.161; AACGTATC: -0.00505. CCGGTACC: the “PBM E-score” value was 0.338. Consider GTAAGGAC, for which the “PBM E-score” value was 0.176. Next, GTAACGGA: 0.401; AAGAGCTT: -0.107. With GTTTAAAC the figure was 0.307. Next, ACAGGACG: -0.0975; AGGTTGAG: -0.275. In the case of TGTCCGAA, the “PBM E-score” value was found to be 0.412. With ATAATGAC the figure was -0.0457. Take CTGCGCCA: the “PBM E-score” value was -0.103. Regarding AACTTCGC, the “PBM E-score” value was 0.0459.

As to ACAGGAGC, the “PBM E-score” value was -0.174. Next, CTGTTTTC: -0.131; AACCTCTA: 0.0467; GTGCGGTA: 0.214. Next, CCAGCAGG: -0.231; CTTACTCA: -0.148; AGCTCAAT: -0.0666. AGTAGAGC: the “PBM E-score” value was -0.345.

For the sequence GGCTCCAA, the “PBM E-score” value is 0.0341. For the sequence AGAGTGGC, the “PBM E-score” value was -0.0593.

For GATGAAGA, the “PBM E-score” value is 0.044.

For the sequence GAGCCCGC, the “PBM E-score” value is 0.103. With ATCGCATC the figure was 0.214. With ATAGACCC the figure was 0.23; with CAGTCGAC, -0.126. Next, AGTCTGTA: -0.287. With GCATACCA, the “PBM E-score” value is -0.045.

In the case of ACCCCCGA, the “PBM E-score” value amounted to 0.371. With ACCCATGA the figure was 0.0386; with ACGGATGC, 0.2; with TGGATCAA, -0.284.

Turning to CCAAATCA, the “PBM E-score” value was -0.284. Next, GGACGTAA: 0.275. With GGGAACTA the figure was 0.202; with CACGGAGC, 0.266; with CGGGAAAG, 0.288. Next, ACGGTCAT: 0.251.
